These results are taken from PubChem BioAssay AID488969 (Vanderbilt High Throughput Screening Facility, 2010).

In all, about 110,000 compounds were measured (“z-score”: median about -0.1, highest 2% from about 2 on). Some of the results follow.

This experiment concerns the target Metabotropic glutamate receptor 8 (Rattus norvegicus) (UniProt P70579). Description: rat mGluR8 modulators via GIRK flux, primary screen, cell-based, thallium flux, HTS (AID 488969). As to conditions: HEK293 rat mGluR8, GIRK (G protein-gated inwardly rectifying potassium channel) thallium flux, FluoZin2; at 10 µM; stronger effect = higher value; submaximal glutamate (EC20) added with thallium.
UniProt P70579, sequence (P70579 whole entry, looked up): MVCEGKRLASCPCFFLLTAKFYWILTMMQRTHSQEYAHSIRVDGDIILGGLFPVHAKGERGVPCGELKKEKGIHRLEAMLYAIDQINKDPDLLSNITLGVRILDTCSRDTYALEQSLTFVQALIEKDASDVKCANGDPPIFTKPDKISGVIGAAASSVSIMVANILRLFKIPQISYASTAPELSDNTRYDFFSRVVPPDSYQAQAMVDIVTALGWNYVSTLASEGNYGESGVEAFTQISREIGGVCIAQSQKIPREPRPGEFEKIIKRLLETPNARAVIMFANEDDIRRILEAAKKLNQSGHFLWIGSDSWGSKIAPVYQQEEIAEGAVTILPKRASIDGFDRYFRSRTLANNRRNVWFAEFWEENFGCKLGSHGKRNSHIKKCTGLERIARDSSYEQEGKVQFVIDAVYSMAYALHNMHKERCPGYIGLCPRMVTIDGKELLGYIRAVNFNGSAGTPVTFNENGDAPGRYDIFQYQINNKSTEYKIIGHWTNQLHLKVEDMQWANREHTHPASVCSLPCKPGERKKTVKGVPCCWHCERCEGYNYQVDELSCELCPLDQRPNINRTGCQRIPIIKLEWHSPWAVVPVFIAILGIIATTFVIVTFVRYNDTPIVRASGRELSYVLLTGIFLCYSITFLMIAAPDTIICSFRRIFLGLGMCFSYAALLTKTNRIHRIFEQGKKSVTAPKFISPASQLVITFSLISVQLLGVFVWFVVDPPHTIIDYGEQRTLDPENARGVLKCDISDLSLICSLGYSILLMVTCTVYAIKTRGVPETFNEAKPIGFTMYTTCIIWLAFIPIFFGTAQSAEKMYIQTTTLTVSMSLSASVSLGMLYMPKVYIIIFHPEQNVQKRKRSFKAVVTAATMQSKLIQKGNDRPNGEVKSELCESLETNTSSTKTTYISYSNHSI
Take `Cc1c(NC(=O)CSc2ncn[nH]2)c(=O)n(-c2ccccc2)n1C`: the z-score was 0.565.

Compound `CCc1ccc(NC(=O)c2ccccc2NC(=O)C2CCCO2)cc1` (stereo not given) displayed a z-score of -0.0852. In turn, `CC1CCN(c2ccc(C(=O)Nc3nnc(C4CC4)s3)cc2[N+](=O)[O-])CC1` returned a z-score of -0.311.

The compound `CN1CCN(C(=S)NC(=O)/C=C/c2cccc3ccccc23)CC1` displayed a z-score of 2.03.

`Cc1ccc(C)c(NC(=O)c2ccc3ccccc3n2)c1` had a z-score of -0.43. `O=C(Cn1nnc(-c2ccccc2-n2cnnn2)n1)N1CCCCC1`: the z-score is 0.026.

`CCOC(=O)c1c(NC(=O)Cn2nc(C(F)(F)F)cc2C)sc(C)c1C`: the z-score was found to be 0.98.

For `Cc1nn(Cc2ccc(F)cc2)c(C)c1NC(=O)c1nn(C)cc1Cl`, the z-score was 0.0506. `O=C(CSCc1ccc(Cl)cc1)N1CCOCC1` returned a z-score of -0.305. On to `CCCN(CCC)S(=O)(=O)c1ccc(NC(=O)C2CCCO2)cc1` (stereo not given), for which the z-score was -0.0696.

In turn, `C#CCN(C)CC/C=C1\c2ccccc2CSc2ccccc21` gave a z-score of 1.63. Compound `COC(=O)C1=C(C)NC(C)=C(C(=O)OC)C1C1CC=CCC1` (stereo not given) had a z-score of -0.488. The figure for `CCOc1cc(C(=O)OCC(=O)NCc2ccco2)cc(OCC)c1OCC` is 0.575; for `C=C(C)COc1ccc2c(C)c(C)c(=O)oc2c1OCC(=C)C` it is -0.0219. `Cc1ccc(NP(=O)(c2ccc(N(C)C)cc2NC(=O)c2cccs2)N2CCOCC2)cc1Cl` (stereo not given) displayed a z-score of -0.604. In the case of `COc1cccc(/C=N/n2c(N)c(S(=O)(=O)c3cccs3)c3nc4ccccc4nc32)c1OC`, the z-score was 0.0205. The compound `Cc1oc(-c2ccc(Cl)cc2)nc1CS(=O)CC(=O)NCCCN(C)C1CCCCC1` (stereo not given) came in with a z-score of 1.74.

In turn, `CCCCCCC(=O)Nc1ccc(C(=O)N/N=C/c2cccnc2)cc1` came in with a z-score of -0.6. Next, `Cc1ccc(S(=O)(=O)C2(C(=O)NC3CCCC3)CC2)cc1`: 0.0369; `CSc1ccccc1NC(=O)c1cnc2n(c1=O)CCS2`: -1.65. `COc1cccc(C(=O)N/N=C/C(Br)=C/c2ccccc2)c1` returned a z-score of 0.954. For `O=C(Nc1ccn(Cc2c(F)c(F)c(F)c(F)c2F)n1)c1cccc(Cn2cc([N+](=O)[O-])cn2)c1`, the z-score is 0.808.

In the case of `COc1cc(OC)c(OC)cc1/C=N/N(C)c1ccccc1`, the z-score was -0.544.

Consider `O=C(CN1C(=O)S/C(=C/c2cccs2)C1=O)N1CCOCC1`, for which the z-score is -0.0771. Consider `CCOC(=O)Cc1csc(NS(=O)(=O)Cc2ccccc2)n1`, for which the z-score is 0.143.

`Cc1cc2ccccc2c(=O)n1CC(=O)N(C)c1ccc(F)cc1` registered a z-score of 0.502. On to `Cc1ccc(S(=O)(=O)Nc2ccccc2/C=N/c2nc3ccccc3n2C(C)C)cc1`, for which the z-score was -0.263.

As for `c1ccc(OCCCCN2CCOCC2)cc1`, the z-score is -0.0323. Regarding `S=C(NCc1ccc(Cl)cc1)NC1CCCCC1`, the z-score was 0.172. `NC(=O)CC[C@H](NC(=O)c1ccc(F)cc1)C(=O)OCC(=O)Nc1ccc(N2CCOCC2)cc1` registered a z-score of -0.255. Take `CCNC(=S)SCCOc1ccc(C)cc1`: the z-score was 0.376. Compound `Cc1ccccc1OCC(=O)Nc1ccc(N2CCN(C(=O)C(C)C)CC2)c(Cl)c1` yielded a z-score of 0.064. In turn, `CCCCc1c(O)nc(SCC(=O)N2CCOCC2)[nH]c1=O` gave a z-score of 0.0929.

In the case of `CCN(CC)Cc1c(O)ccc2c([N+](=O)[O-])c(C)n(-c3ccc(OC)cc3)c12`, the z-score was -0.194. `Cc1ccc(N=C2NC(=O)CS2)cc1` displayed a z-score of 2.26. The figure for `CCc1ccc(NC(=O)CSc2nc3n[nH]c(C)c3c(=N)n2-c2cccc(OC)c2)cc1` is 0.339; for `CC1CCCCN1CC(=O)NCc1ccc2c(c1)OCO2` (stereo not given) it is -0.58. In turn, `CCN1C(=O)CC(C(=O)O)SC1=Nc1ccc(OC)cc1` (stereo not given) came in with a z-score of -0.109. On to `CCOc1ccc(NC(=O)C2CCN(c3nnnn3-c3ccccc3)CC2)cc1`, for which the z-score is -0.883.

As to `O=C(O)C1CC(=O)N(c2ccc(Br)cc2)C1` (stereo not given), the z-score was -0.00342.

Regarding `Cc1ccsc1/C=N/Nc1nc(Cl)c(Cl)cc1Cl`, the z-score amounted to 0.292. Next, `CCc1nn(CC(=O)N2CCN(Cc3ccc4c(c3)OCO4)CC2)c(=O)c2cc3occc3n12`: -0.254; `O=C(O)c1cccc(S(=O)(=O)Nc2ccc(O)cc2Sc2nc3ccccc3s2)c1`: 0.537; `CCOc1cc(/C=N/N=C(\N)c2nonc2N)cc(Br)c1OCc1cccc2ccccc12`: -0.124. In turn, `COc1ccc(CCNC2CC(C)N(C)CC2C)cc1OC` (stereo not given) showed a z-score of -0.428. Next, `CN(C)CCCNC1=CC(=O)OC12CCCCC2`: 0.108; `C#CCn1c(=NC(=O)c2cccs2)sc2cccc(OC)c21`: -0.0768; `Cc1ccc(S(=O)(=O)C/N=C(/NC(=S)N(c2ccccc2)c2ccccc2)c2ccccc2)cc1`: -0.238. Next, `O=C(O)CSc1nccn1-c1cccc(Cl)c1`: 0.0771. The compound `CCC(C)(C)n1nnnc1C(c1cccc(C#N)c1)N1CCN(c2cccc(C)c2C)CC1` (stereo not given) yielded a z-score of 0.169. Regarding `COC(=O)Cc1ccc(NC(=S)NCc2ccc(F)cc2)cc1`, the z-score was -0.19.

`CCN(C#N)c1nc(N(C)C)nc(N(C)C)n1` registered a z-score of -0.25. In turn, `COc1ccc(CCNc2ccncn2)cc1` came in with a z-score of -0.654. For `CC(C)(C)c1nc(CN2CCOCC2)cc(CN2CCOCC2)c1O`, the z-score is -0.0386.

Turning to `CCN=C1SC(CC(=O)Nc2ccccc2OCC)C(=O)N1CC` (stereo not given), the z-score worked out at 0.408. Regarding `CCc1ccc(Nc2cnn(-c3nc4ccccc4s3)c(=O)c2Cl)cc1`, the z-score was -0.0416.

For the compound `CCN(CC)C(=O)CN(C#N)c1nc(C)cc(C)n1`, the z-score turned out to be 0.274. The figure for `CCCCN(C(=O)CNC(=O)c1ccco1)C(C(=O)NC1CCCC1)c1ccc(OC)cc1` (stereo not given) is -1.06; for `CCn1cc(C2=NCC(C)O2)c2ccccc21` (stereo not given) it is -0.185.

For `CC(CCc1ccccc1)NC(=O)COC(=O)C12CC3CC(CC(Br)(C3)C1)C2` (stereo not given), the z-score is -0.193. The figure for `Cc1cc(=O)oc2ccc(OCC(=O)N3CCC(C)CC3)cc12` is -0.44. As for `Cc1ccc(S(=O)(=O)NC2=C(N3CCN(Cc4ccccc4)CC3)C(=O)c3ccccc3C2=O)cc1`, the z-score was found to be 0.292. `O=C1/C(=C/c2cccnc2)SC(=S)N1c1ccc(F)cc1` registered a z-score of -0.12.

The compound `COc1ccc2nc(N/C(N)=N/C(=S)Nc3ccc(C)c(C)c3)nc(C)c2c1` yielded a z-score of 0.0146.

Regarding `O=C(NCc1ccccc1)C(=O)NCC(c1ccco1)N1CCOCC1` (stereo not given), the z-score is -0.00404. With `Cc1ccc(-n2c(SCC(=O)Nc3cccc(C)c3)nc3c(oc4ccccc43)c2=O)cc1`, the z-score was 0.143.

With `Cc1ccc(C)c(Cn2c(C(C)O)nc3ccccc32)c1` (stereo not given), the z-score is -0.218. The figure for `CC1CC(C)CN(C(=O)CN2CCN(Cc3ccc(Cl)cc3)C2=O)C1` (stereo not given) is -0.081; for `CCSc1nnc(NC(=O)C2CCN(S(=O)(=O)c3c(C)c(C)cc(C)c3C)CC2)s1` it is -0.0856. In turn, `Cc1cc(C(=O)COC(=O)C2=COCCO2)c(C)n1-c1ccc2c(c1)OCO2` yielded a z-score of -0.224.
